Measurements: PubChem BioAssay AID588342 (National Center for Advancing Translational Sciences (NCATS), 2011)
Among all 360,000 compounds or so, about 25,000 (6.9%) were called active. Inconclusive means that the source gave no clear call. Such entries were picked first, then a sample of the others. Calls come from the whole dose curve; as a rule, active = well fitted inhibition curve with a large enough effect; inconclusive = small, poorly fitted or top-dose-only effect; inactive = flat fitted curve, though single readings scatter. Potencies beside an inconclusive call are fits to weak or partial responses and may not hold up.

Each molecule was assayed against Luciferin 4-monooxygenase (Photinus pyralis) (UniProt P08659) (assay: qHTS profiling assay for firefly luciferase inhibitor/activator using purifed enzyme and Km concentrations of substrates (counterscreen for miR-21 project)). Conditions: purified FLuc, luminescence inhibition; series mostly up to 57.5 µM; activity change, negative = inhibition: at the top concentration.
UniProt P08659, sequence (P08659 whole entry, looked up): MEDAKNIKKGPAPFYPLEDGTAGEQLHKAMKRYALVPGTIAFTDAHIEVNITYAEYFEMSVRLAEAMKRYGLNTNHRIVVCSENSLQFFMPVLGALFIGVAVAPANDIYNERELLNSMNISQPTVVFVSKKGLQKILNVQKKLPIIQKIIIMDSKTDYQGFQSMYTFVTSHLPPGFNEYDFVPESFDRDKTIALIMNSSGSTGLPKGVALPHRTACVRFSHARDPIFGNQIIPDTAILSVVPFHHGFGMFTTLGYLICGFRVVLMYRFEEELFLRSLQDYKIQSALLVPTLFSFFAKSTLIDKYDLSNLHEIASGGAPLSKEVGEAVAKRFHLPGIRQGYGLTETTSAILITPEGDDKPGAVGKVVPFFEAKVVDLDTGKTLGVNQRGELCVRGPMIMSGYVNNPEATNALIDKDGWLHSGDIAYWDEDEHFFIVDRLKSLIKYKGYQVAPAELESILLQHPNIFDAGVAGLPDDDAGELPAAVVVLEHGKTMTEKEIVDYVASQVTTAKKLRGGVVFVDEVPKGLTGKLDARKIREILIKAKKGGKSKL
In short: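 Biochemical qHTS of compounds, final roughly 60 µM downward over six points, against 10 nM purified firefly luciferase using Km concentrations of substrates (10 uM D-luciferin, 10 uM ATP) in Tris acetate pH 7.5 buffer; luminescence output.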
Note: nearly all actives have a fitted effect of over 55% in size.
Potency is the fitted concentration of half-maximal effect; tags give direction and shape of the fitted curve.
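Throughout, for activity change, negative = inhibition: plate controls were vehicle for no effect and reference inhibitor for full effect.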

| SMILES | Potency | activity change, negative = inhibition |
| --- | --- | --- |
| Cc1nnc(CN(C)C(=O)c2cc(COc3ccc(C)c(C)c3)on2)o1 | inconclusive: 30.1 µM [inhibitor, partial curve, poor fit] |  |
| Cc1ccc(NC(=O)C(OC(=O)c2ccc(C=O)cc2)c2ccccc2)cc1Cl (centres undefined) | inconclusive: 37.9 µM [inhibitor, partial curve, poor fit] |  |
| O=C1NN(c2ccccc2)C(=O)/C1=C/c1ccc(-c2ccc(Cl)c(C(=O)O)c2)o1 | inconclusive: 23.9 µM [inhibitor, partial curve] |  |
| COC(=O)Cc1[nH]n(-c2nc3ccccc3s2)c(=O)c1C(C)=Nc1ccc(C)cc1 | inconclusive: 30.1 µM [inhibitor, single point] |  |
| O=C(N/N=C/c1ccccn1)c1ccc(NC(=O)c2cccc([N+](=O)[O-])c2)cc1 | inconclusive: 19 µM [inhibitor, partial curve, poor fit] |  |
| COc1ccccc1CNC(=O)c1cccc(S(=O)(=O)N(C)c2ccccc2)c1 |  | inactive: -0.0533% |
| NC(=O)c1ccccc1NC(=O)c1ccccc1Cl |  | inactive: -16.6% |
| O=C(Cc1ccc(NC(=O)N2CCCCc3ccccc32)cc1)NCc1cccc(Br)c1 | inconclusive: 12 µM [inhibitor, partial curve, poor fit] |  |
| O=C(CSc1nc2ccc([N+](=O)[O-])cc2[nH]1)NCCc1ccccc1 |  | inactive: 2.08% |
| O=C(COc1ccc2ccccc2c1)Nc1ccc(Br)cc1C(=O)O | inconclusive: 33.8 µM [inhibitor, partial curve, poor fit] |  |
| CCCCCCOc1ccc(C(=O)O)cc1C#N | inconclusive: 21.3 µM [inhibitor, partial curve, poor fit] |  |
| COc1ccc(C(=O)Nc2cccc(OC)c2)cc1 | active: 6.75 µM |  |
| COc1ccc(NC(=O)Nc2cnccn2)cc1 | inconclusive: 21.3 µM [inhibitor, single point] |  |
| Cc1cccc(Nc2nnc(SCc3cn4ccsc4n3)s2)c1 | active: 16.9 µM |  |
| O=C(Nc1ccc(CCC(=O)N2CCCC2)cc1)c1ncn[nH]1 | inconclusive: 26.9 µM [inhibitor, partial curve, poor fit] |  |
| Cc1ccc2c(c1)sc(=NC(=O)C1CC1)n2C | active: 8.49 µM |  |
| C/C(=N\N=C1\NC(=O)CS1)c1cccs1 | inconclusive: 26.9 µM [inhibitor, partial curve, poor fit] |  |
| CCOc1ccc(S(=O)(=O)Nc2ccc3c(c2)CCCN3C(=O)c2cccs2)cc1 | inconclusive: 37.9 µM [inhibitor, partial curve, poor fit] |  |
| CCOC(=O)c1ccc(Nc2c(-c3ccc(OC)cc3)nc3nc[nH]n23)cc1 |  | inactive: -4.45% |
